# The other results are listed elsewhere or left out. Cut-off read from the data, not from the text of the source: active = 3.2 or more and inactive = the rest. Only a few entries rise above the background.
# What was measured:
# Assay in all cases: enrichment score (SH2-bound / input frequency) (ratio); bacterial display of known human phosphotyrosine sites (pTyr-Var adds point mutants) read by sequencing; higher = stronger binding; tyrosines were phosphorylated by kinases first
# Conditions in all cases: peptide library: pTyr-Var
# SHP2 C-SH2 domain E139D = target: SHP2 C-SH2 domain E139D
# [1] = target: SHP2 C-SH2 domain wild-type
# SHP2 N-SH2 domain L43F = target: SHP2 N-SH2 domain L43F
# SHP2 N-SH2 domain T42A = target: SHP2 N-SH2 domain T42A
# SHP2 N-SH2 domain T52S = target: SHP2 N-SH2 domain T52S
# [2] = target: SHP2 N-SH2 domain wild-type
# 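Note: displayed peptides selected on beads carrying the immobilized SH2 domain, with library peptides lacking any tyrosine serving as negative controls.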
Binder,enrichment score (SHP2 C-SH2 domain E139D),enrichment score [1],enrichment score (SHP2 N-SH2 domain L43F),enrichment score (SHP2 N-SH2 domain T42A),enrichment score (SHP2 N-SH2 domain T52S),enrichment score [2]
MKNDLYQTPLH [NFKB1_Y582_R578K],inactive: 1.12,inactive: 0.804,inactive: 1.17,inactive: 0.967,inactive: 1,inactive: 1.51
SWSTSYSGFRC [NKAPL_Y91_Y96C_YF],inactive: 0.88,inactive: 1.17,inactive: 0.816,inactive: 0.819,inactive: 0.87,inactive: 1.12
YLAAIYPTVGQ [NF1_Y2508_T2507I],inactive: 0.898,inactive: 1.21,inactive: 0.995,inactive: 0.908,inactive: 1.14,inactive: 0.901
GLIPAYHRVIM [NMNAT1_Y64],inactive: 1.26,inactive: 1.14,inactive: 1,inactive: 1.28,inactive: 1.06,inactive: 0.896
TRSFKYLLLSM [NF1_Y491_YF],active: 3.36,inactive: 3.06,inactive: 3.03,active: 3.41,inactive: 3.19,inactive: 3.09
SWSTSYSGYRY [NKAPL_Y91],inactive: 1.23,inactive: 1.4,inactive: 1.06,inactive: 1.19,inactive: 0.914,inactive: 1.25
VSSIPYGQPKQ [NEU1_Y251_G248S],inactive: 0.607,inactive: 0.529,inactive: 0.57,inactive: 0.541,inactive: 0.691,inactive: 0.611
VYYGSYSCPYG [NKAP_Y104_R106C],inactive: 0.797,inactive: 1.1,inactive: 1.09,inactive: 0.975,inactive: 0.656,inactive: 1.17
IVLRSYPASDH [NID2_Y449_G453D],inactive: 1.18,inactive: 0.914,inactive: 0.889,inactive: 0.85,inactive: 0.941,inactive: 1.57
RGDVIYKGFED [NFU1_Y194_G189R],inactive: 0.797,inactive: 0.618,inactive: 0.744,inactive: 0.626,inactive: 0.588,inactive: 0.488
GSSEGYLHMVH [NIPBL_Y247_D246G],inactive: 0.765,inactive: 0.757,inactive: 0.75,inactive: 0.896,inactive: 0.731,inactive: 0.781
GLIPAYHWVIM [NMNAT1_Y64_R66W],inactive: 0.868,inactive: 0.869,inactive: 0.846,inactive: 0.821,inactive: 0.708,inactive: 1.09
VFFGSYSRPFG [NKAP_Y104_YF],inactive: 2.51,inactive: 2.47,active: 3.38,active: 3.52,active: 3.58,inactive: 2.89
TSESSYYKSLN [NGEF_Y288_A286S],inactive: 0.451,inactive: 0.373,inactive: 0.483,inactive: 0.308,inactive: 0.442,inactive: 0.503
SLTRLYVGENA [NLRP3_Y861],inactive: 0.745,inactive: 0.86,inactive: 0.724,inactive: 0.694,inactive: 0.842,inactive: 0.716
AQQPIYVRVEG [NLRP7_Y318],inactive: 0.995,inactive: 0.714,inactive: 0.928,inactive: 0.833,inactive: 0.783,inactive: 0.844
FSPGSYERETF [NF1_Y2192],inactive: 0.735,inactive: 0.8,inactive: 0.791,inactive: 0.551,inactive: 0.66,inactive: 0.732
SIDLGYHKDLQ [NF1_Y1169_G1166D],inactive: 0.649,inactive: 0.667,inactive: 0.804,inactive: 0.613,inactive: 0.79,inactive: 0.592
SFPSFYTSHVQ [NEFL_Y443_YF],inactive: 0.984,inactive: 0.975,inactive: 0.948,inactive: 0.865,inactive: 0.947,inactive: 0.961

Binder,enrichment score (SHP2 C-SH2 domain E139D),enrichment score [1],enrichment score (SHP2 N-SH2 domain L43F),enrichment score (SHP2 N-SH2 domain T42A),enrichment score (SHP2 N-SH2 domain T52S),enrichment score [2]
MRNDLYQTPLH [NFKB1_Y582],inactive: 1.02,inactive: 0.984,inactive: 0.824,inactive: 0.857,inactive: 0.69,inactive: 1.26
RSDSTYRMSAT [NHS_Y1532_S1531T],inactive: 0.658,inactive: 0.592,inactive: 0.581,inactive: 0.651,inactive: 0.642,inactive: 0.392
SEASYYKSLNL [NGEF_Y289],inactive: 0.789,inactive: 0.854,inactive: 0.711,inactive: 0.763,inactive: 0.737,inactive: 0.795
KGSEGYLAATY [NF1_Y2503],inactive: 0.808,inactive: 0.736,inactive: 0.723,inactive: 0.565,inactive: 0.648,inactive: 0.906
GASWRYRSGVS [NEU1_Y242_G243R],inactive: 0.44,inactive: 0.491,inactive: 0.42,inactive: 0.314,inactive: 0.606,inactive: 0.331
FLAATYPTLGQ [NF1_Y2508_V2511L_YF],inactive: 1.19,inactive: 0.769,inactive: 0.881,inactive: 1.05,inactive: 1.11,inactive: 1.59
KGSEGYLAAIY [NF1_Y2503_T2507I],inactive: 0.709,inactive: 0.536,inactive: 0.7,inactive: 0.627,inactive: 0.724,inactive: 0.656
VSGIPYGQPKQ [NEU1_Y251],inactive: 0.657,inactive: 0.57,inactive: 0.604,inactive: 0.588,inactive: 0.78,inactive: 0.889
VYYGSYSRPYG [NKAP_Y104],inactive: 1.18,inactive: 1.67,inactive: 1.33,inactive: 1.21,inactive: 1.23,inactive: 1.05
TRSCKYLLLSM [NF1_Y491_Y489C],inactive: 1.4,inactive: 1.48,inactive: 1.56,inactive: 2.12,inactive: 1.56,inactive: 1.47
ARKCKYFKKHE [NFIX_Y40_R38C],inactive: 0.533,inactive: 0.409,inactive: 0.481,inactive: 0.415,inactive: 0.544,inactive: 0.432
FLAATYPTVGQ [NF1_Y2508_YF],inactive: 1.11,inactive: 1.09,inactive: 1.01,inactive: 0.883,inactive: 0.996,inactive: 0.835
SLFNGYVFSGM [NEIL3_Y71_V76M_YF],inactive: 1.73,inactive: 1.45,inactive: 1.61,inactive: 1.56,inactive: 1.45,inactive: 1.34
YLAATYPTLGQ [NF1_Y2508_V2511L],inactive: 0.743,inactive: 0.773,inactive: 0.773,inactive: 0.67,inactive: 0.769,inactive: 0.685
EVTLTYATGTK [NFKB1_Y485],inactive: 0.766,inactive: 0.969,inactive: 0.845,inactive: 0.776,inactive: 0.857,inactive: 0.952
GASWRYGSGVS [NEU1_Y242],inactive: 0.789,inactive: 0.647,inactive: 0.768,inactive: 0.583,inactive: 0.703,inactive: 0.776
TSFSGYRCHRH [NKAPL_Y94_Y96C_YF],inactive: 1.1,inactive: 1.06,inactive: 1.48,inactive: 1.04,inactive: 1.17,inactive: 0.785
GGDVIYKGFED [NFU1_Y194],inactive: 0.679,inactive: 0.624,inactive: 0.728,inactive: 0.546,inactive: 0.712,inactive: 0.918
